This is an account of results in patent US6818619B2, “Chimeric natriuretic peptides” (Mayo Foundation for Medical Education and Research, priority 1999, dated 2004).

The assay relates to arteries and veins. More on the design: species or system dog. The settings on record: as compared to ANP and CNP. On the procedure:
The results obtained are expressed as the means±SEM. In organ chamber studies, n equals the number of dogs from which rings were taken. […] In rat studies, the data were analyzed using ANOVA for repeated measures followed by Fisher's least significant difference test when appropriate within the group. Data between groups were analyzed by Student's unpaired t-test. Statistical significance was determined at p<0.05.

As for vasonatrin peptide [VNP], the vasorelaxing potency result is listed as “more potent”.
